Measured values from the supplement of paper PMC3334620.
Over roughly 33,000 sequences, “E-score (-0.5 to 0.5)” has its median near -0.016; the highest 2% begin near 0.32. The list shows a part of the results.

Molecular target: T1, Stp1 (UniProt B3LFK1)
T1 sequence: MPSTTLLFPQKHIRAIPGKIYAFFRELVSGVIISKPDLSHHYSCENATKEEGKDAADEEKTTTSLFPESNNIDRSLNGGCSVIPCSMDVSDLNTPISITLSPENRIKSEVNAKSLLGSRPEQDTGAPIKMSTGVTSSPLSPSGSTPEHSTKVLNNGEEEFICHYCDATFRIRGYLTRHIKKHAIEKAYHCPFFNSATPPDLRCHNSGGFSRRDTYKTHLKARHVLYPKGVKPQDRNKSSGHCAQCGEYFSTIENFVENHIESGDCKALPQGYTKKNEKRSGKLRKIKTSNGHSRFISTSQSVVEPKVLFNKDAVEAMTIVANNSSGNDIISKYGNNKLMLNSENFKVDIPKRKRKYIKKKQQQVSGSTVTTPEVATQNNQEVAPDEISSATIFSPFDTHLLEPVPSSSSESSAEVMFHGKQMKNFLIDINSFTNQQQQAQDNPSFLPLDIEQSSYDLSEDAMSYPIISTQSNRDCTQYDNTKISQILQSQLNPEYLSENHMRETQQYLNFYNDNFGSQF
Assay: PBM E-score (8-mer binding enrichment) (E-score (-0.5 to 0.5)); higher = stronger / more preferred TF binding; most listed sequences are background and not binding sites
Conditions: protein concentration: 200 nM; construct: GST-full length
Method in brief: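 Yeast transcription factors carrying a GST tag, as full-length proteins or DNA-binding domains, were produced by PURExpress in vitro transcription/translation. About 100-200 nM protein was applied to universal all-10-mer Agilent arrays, double-stranded by primer extension on fresh or once-stripped slides. Bound protein was detected with fluorescent anti-GST, and scans were normalised with masliner. The Universal PBM Analysis Suite gave each ungapped eight-base word, pooled with its reverse complement, an E-score, a modified Wilcoxon-Mann-Whitney statistic.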

Row | Sequence | PBM E-score
1 | GTCCAGTA | -0.174
2 | ATTGTACG | 0.152
3 | GAAACTAA | 0.0104
4 | GCTATGAA | 0.00421
5 | CTGCCCCA | -0.0878
6 | ATCGGGTG | -0.0912
7 | ATACACGC | 0.136
8 | ACTATAGG | -0.135
9 | CGGGGGAC | -0.29
10 | AATCTCCA | -0.131
11 | CAAAGTAG | -0.0838
12 | ACCATCAG | -0.216
13 | CATTGGAA | 0.102
14 | AGCTTATA | -0.0428
15 | ACTTCACC | 0.174
16 | CCCTGAGC | -0.0609
17 | GGGCGTAA | -0.0217
18 | CCTCTAAG | -0.178
19 | CTGGCCTC | -0.197
20 | GAGCCCAC | -0.264
21 | CCTGAACA | -0.103
22 | ACGGTGGA | -0.202
23 | AGTGAAAT | 0.108
24 | CCTAAGTC | -0.287
25 | ACTCGACT | -0.136

Row | Sequence | PBM E-score
26 | GACTTCTA | -0.11
27 | AGGCAGAC | -0.147
28 | AGGCATGC | 0.144
29 | CCCATGTA | -0.0406
30 | CGCGAGAC | -0.0726
31 | AAGGAAGA | -0.149
32 | ACCTGCTG | -0.0848
33 | AAACCCGA | 0.104
34 | GGTTGAAA | 0.0306
35 | AAGTGTAC | -0.111
36 | CGCAAACC | 0.0345
37 | GTGATTGA | 0.144
38 | AGGAGTTC | -0.206
39 | AACTTCAG | -0.15
40 | CCATATTA | 0.14
41 | TAGTGTAA | 0.166
42 | ATCAAGTG | -0.0832
43 | TATGCCCA | -0.122
44 | AAATGCAC | 0.0093
45 | TCCATGGA | 0.173
46 | GAGATAGA | -0.0115
47 | GGCCTCTA | -0.133
48 | CCTACCTC | -0.304
49 | CGGGCAAG | 0.052
50 | CTACTGAA | 0.167

Row | Sequence | PBM E-score
51 | TACTTCAA | 0.0503
52 | GTCGGGAA | -0.0823
53 | CCCCCGTA | -0.238
54 | CCAAATTC | 0.011
55 | AGGGGACA | -0.145
56 | ATTGTAGG | 0.196
57 | CCCTGGAG | -0.332
58 | CTATATTA | 0.177
59 | CCCATAGC | -0.263
60 | ATGACCCA | -0.144
61 | CGTTCATC | 0.0052
62 | AAGAAGTG | -0.0361
63 | ATTACAGA | 0.0669
64 | ATACGTAC | 0.197
65 | GGTGGCAA | -0.136
66 | AGAGTTGG | -0.146
67 | CGATAAGA | 0.0597
68 | CAACGTAA | 0.0354
69 | ATAATTGC | 0.113
70 | CGTCTGAG | 0.0535
71 | CAAGGTAC | -0.0837
72 | CATGTCTC | -0.169
73 | TCGTACCA | 0.0286
74 | ACTGCGCT | -0.19
75 | ACGGATTA | 0.159

Row | Sequence | PBM E-score
76 | AATGTGAA | 0.125
77 | CTAAACCA | -0.138
78 | ATATCATC | 0.115
79 | AACCTCAC | -0.205
80 | CCACCACG | -0.0478
81 | GCCAAGCC | -0.127
82 | CCAGTCTC | -0.199
83 | GCCGCGCC | 0.46
84 | GCTACCAA | -0.117
85 | AGATAGTG | 0.0428
86 | ACTGGAGG | 0.0177
87 | AGGCTTCA | -0.0829
88 | ATGTTCCA | -0.0898
89 | CCTAGAAG | -0.0172
90 | CTGAATTC | -0.0371
91 | ACTCTGGA | 0.0868
92 | ATAGGGAC | -0.211
93 | TAGGCCTA | -0.236
94 | GCCTCGAA | 0.136
95 | GCGTTGCA | 0.19
96 | AAAGCCTG | -0.0846
97 | GATCAACC | -0.208
98 | ACACAGTG | -0.0507
99 | TAAGAACA | 0.297
100 | GTTCTTTA | -0.0057

Row | Sequence | PBM E-score
101 | GATACGCA | 0.057
102 | GAGCAGGA | -0.121
103 | GGGGCACA | 0.0124
104 | GGCAAGAA | 0.22
105 | ATTCATGC | -0.0305
106 | GTTCGCTA | 0.146
107 | AGCAACGA | 0.0731
108 | ACCCTGAA | -0.0806
109 | TCTAATAA | 0.183
110 | ACGTATGC | 0.00677
111 | AGCCACCA | -0.131
112 | ATATATAG | 0.318
113 | AAGGGTGG | -0.288
114 | ATTGAGGA | -0.0544
115 | CCAGGGGA | -0.182
116 | CTTACCGA | 0.0792
117 | AAGCATGA | -0.0275
118 | TCGCGACA | -0.0531
119 | AGAATTTA | 0.0596
120 | TCGTTTAA | 0.0364
121 | AATGATGA | -0.12
122 | CTGGGATA | -0.0426
123 | TCGCTCAA | -0.0935
124 | TCGCAAAA | 0.138
125 | GGCGATAC | 0.179

Row | Sequence | PBM E-score
126 | GCAACACC | 0.12
127 | CGATGGTA | -0.0571
128 | CAAAGGAC | -0.198
129 | ATTTTTAA | 0.222
130 | ACGCGCCA | 0.0175
131 | AGTCAAGC | -0.4
132 | AGCTACGG | 0.0711
133 | TCGCGAGA | 0.0306
134 | AATAACGG | 0.265
135 | GACGATGC | 0.0605
136 | CCACCCAA | -0.136
137 | CTCCATCA | -0.0704
138 | GGTGGCAC | 0.147
139 | ATAAGGAG | -0.147
140 | CTCCTGTC | -0.0571
141 | GCCGTTAC | 0.268
142 | AAAAATGA | 0.0138
143 | CAACAAGG | 0.178
144 | CTGTGCAC | -0.0277
145 | CGAAACCG | 0.161
146 | CAACTATC | -0.0556
147 | GCCACAGA | 0.057
148 | AATGGGCA | 0.0749
149 | AGATCGGG | -0.328
150 | GCGTCGGA | 0.106

Row | Sequence | PBM E-score
151 | CCTATTCC | 0.0452
152 | ATAAAAGA | 0.0121
153 | GCTCTAAA | 0.0828
154 | GTGGCGCA | 0.3
155 | CTACGATA | 0.0401
156 | AGGTTATC | -0.12
157 | CCGTCCAC | 0.22
158 | TCCTGAAA | 0.0222
159 | AATGAAAA | 0.191
160 | AATGGTGG | -0.267
161 | ACTGTCGG | -0.0575
162 | AGACTGTA | -0.0982
163 | ATCACGTC | -0.00103
164 | AGCAGAAT | 0.0608
165 | CGGTTTAG | -0.194
166 | GGGTGACA | -0.224
167 | AGTCGGAA | 0.109
168 | TCCAGCAA | -0.116
169 | TAAACACA | 0.059
170 | AGGATCCG | -0.223
171 | ATGTCAAC | -0.0864
172 | ACAAAGCC | 0.208
